Consider 88 compounds from article PMC4336329 (PLoS ONE, 2015).

Out of some 310,000 compounds screened, about 14,000 (4.5%) showed an effect of 50% or more. The effect is printed as a negative number. This is one part of the list.
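Note: peak tail current of the secondary pulse compared with the same well before compound.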

The target in the assay is human ether-à-go-go-related gene (hERG) potassium channel (human, UniProt Q12809). Nature of the assay: primary screen, population patch clamp on CHO cells stably expressing hERG.
Sequence of human ether-à-go-go-related gene (hERG) potassium channel (Q12809 whole entry, looked up): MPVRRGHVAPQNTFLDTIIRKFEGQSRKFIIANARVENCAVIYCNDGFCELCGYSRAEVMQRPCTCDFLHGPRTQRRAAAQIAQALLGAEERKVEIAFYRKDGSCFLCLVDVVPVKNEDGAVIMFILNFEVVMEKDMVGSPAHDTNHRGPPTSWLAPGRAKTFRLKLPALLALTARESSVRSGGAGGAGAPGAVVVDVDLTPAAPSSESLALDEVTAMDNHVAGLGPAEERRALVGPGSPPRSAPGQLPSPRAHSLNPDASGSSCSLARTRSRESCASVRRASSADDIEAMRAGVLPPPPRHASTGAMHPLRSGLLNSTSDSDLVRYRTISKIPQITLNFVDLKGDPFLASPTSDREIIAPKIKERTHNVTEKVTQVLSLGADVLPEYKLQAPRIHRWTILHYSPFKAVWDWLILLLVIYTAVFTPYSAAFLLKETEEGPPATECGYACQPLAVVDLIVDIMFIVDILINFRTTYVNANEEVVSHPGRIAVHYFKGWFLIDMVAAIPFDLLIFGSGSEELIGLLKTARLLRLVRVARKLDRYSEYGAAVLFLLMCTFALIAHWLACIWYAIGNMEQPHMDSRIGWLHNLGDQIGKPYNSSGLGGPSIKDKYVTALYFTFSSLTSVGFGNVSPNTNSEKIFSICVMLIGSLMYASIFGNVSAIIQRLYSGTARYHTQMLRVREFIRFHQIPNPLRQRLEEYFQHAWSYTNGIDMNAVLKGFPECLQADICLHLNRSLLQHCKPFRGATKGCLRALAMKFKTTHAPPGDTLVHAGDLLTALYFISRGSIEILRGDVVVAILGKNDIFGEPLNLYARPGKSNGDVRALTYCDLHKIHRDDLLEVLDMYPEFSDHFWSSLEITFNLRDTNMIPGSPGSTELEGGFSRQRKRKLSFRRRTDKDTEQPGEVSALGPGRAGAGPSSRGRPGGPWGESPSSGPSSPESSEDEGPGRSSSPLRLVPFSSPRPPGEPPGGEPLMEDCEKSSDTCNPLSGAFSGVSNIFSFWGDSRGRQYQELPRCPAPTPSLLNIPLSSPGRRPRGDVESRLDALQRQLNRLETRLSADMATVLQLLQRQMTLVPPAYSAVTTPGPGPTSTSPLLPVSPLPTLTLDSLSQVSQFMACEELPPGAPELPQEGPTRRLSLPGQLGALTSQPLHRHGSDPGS
Take `Cc1ccc(-c2csc(NCCc3nc4cc(Cl)c(Cl)cc4n3CCOCCO)n2)cc1`: the “hERG current change (%, negative = inhibition) at 10uM” value worked out at 5.05%. Consider `COC(=O)c1sccc1NC(=O)COc1ccc(F)cc1Cl`, for which the “hERG current change (%, negative = inhibition) at 10uM” value was -0.106%. The result for `O=c1cc(CNc2cc(C(F)(F)F)cc(C(F)(F)F)c2)nc2sccn12` reads -6.36%; that for `CC(C)CNc1nc(SCC(=O)Nc2ccccc2)nc(N2CCOCC2)n1`, -4.05%; that for `C=Cc1ccc(Cn2c(=O)n(CCCOC)c(=O)c3sccc32)cc1`, -4.14%. The result for `O=c1c2cnn(-c3ccccc3)c2nc(-c2ccco2)n1-c1ccccc1` reads -5.61%; that for `O=C(c1ccccc1)N(NC(=O)C(O)(c1ccccc1)c1ccccc1)c1cccc(F)c1`, 1.41%. For `Cc1ccc2c(c1)S/C(=C/c1ccc[n+](C)c1)N2CCO.[I-]` the value was -4.88%. As for `Cc1ccc2cc(CN(CC3CCCO3)C(=S)Nc3ccccc3)c(=O)[nH]c2c1C` (stereo not shown), the “hERG current change (%, negative = inhibition) at 10uM” value stood at 0.744%. The result for `Cc1cccc(OCC(=O)Nc2ccccc2N2CCCCC2)c1C` reads -21.9%; that for `Cc1[nH]c(C)c(S(=O)(=O)N(C)Cc2ccccc2)c1C(=O)N1CCCC1`, 15.2%.

Take `CCC(=O)N1CCc2cc(S(=O)(=O)CCC(=O)NCc3ccc4c(c3)OCO4)ccc21`: the “hERG current change (%, negative = inhibition) at 10uM” value amounted to 0.659%. For `CN(C)c1ccc(NC(=O)CSc2n[nH]c(-c3ccco3)n2)cc1` the value was 4.82%; for `Cc1c(NS(=O)(=O)c2ccc(F)cc2)c(=O)n(-c2ccccc2)n1C`, 13%; for `COc1ccc(Sc2ccc(/C=C3\C(=O)NN(c4ccccc4)C3=O)o2)cc1`, 7.52%. The result for `O=C(NCCc1ccccc1)C1CCN(C2CCN(Cc3ccco3)CC2)CC1` reads -62.7%; that for `CCn1nc(C)c(CNCc2cn[nH]c2-c2cc3ccccc3o2)c1C`, -19%. For `O=C(O)c1ccc(N/C(=N\S(=O)(=O)c2ccc(Cl)cc2)c2ccccc2)cc1`, the “hERG current change (%, negative = inhibition) at 10uM” value is listed as -1.75%. The result for `CCCOc1ccc(-c2nnc(-c3ccco3)o2)cc1` reads 2.1%; that for `Cc1ccc(C(=O)N(C)CC(=O)Nc2cccc(C)c2C)o1`, 9.83%.

Turning to `COc1ccccc1CN1[C@@H](CC(C)=O)c2cc(C(F)(F)F)ccc2S1(=O)=O`, the “hERG current change (%, negative = inhibition) at 10uM” value was -8.05%. For `CCOC(=O)C1(CC2CCCCO2)CCN(Cc2nccn2-c2cccc(C)c2)CC1` (stereo not shown) the value was 13.2%. In the case of `C=CCNC(=S)NNC(=O)c1csc(C)c1CC`, the “hERG current change (%, negative = inhibition) at 10uM” value turned out to be 0.462%. The result for `C/C(CC(=O)NCc1ccco1)=N\NC(=O)Cc1ccccc1` reads 19.6%; that for `Cc1noc(C)c1COc1ccc(C(=O)O)cc1`, 17.1%.

Regarding `Cc1nn(-c2ccccc2)c(C)c1NC(=O)COC(=O)C1CC(=O)N(CCc2ccccc2)C1` (stereo not shown), the “hERG current change (%, negative = inhibition) at 10uM” value was 9.52%. The result for `CCc1ccc(N(CC(=O)Nc2nc3ccc(C)cc3s2)S(=O)(=O)c2c(C)noc2C)cc1` reads 7.28%; that for `COc1ccc(CN2CCOCCOCCOCCOCCOCC2)cc1`, -20.7%. In the case of `Cc1onc(-c2c(Cl)cccc2Cl)c1C(=O)N1CCSCC1`, the “hERG current change (%, negative = inhibition) at 10uM” value is -5.76%. The result for `CC(C)[C@H](NC(N)=O)C(=O)NNC(=O)COc1cccc(C(F)(F)F)c1` reads 7.71%; that for `CCOC(=O)c1sc(=NC(=O)C2CC2)n(C)c1C`, 10.2%. For `Cc1cccc(NC2=CC(=O)CC(C)(C)C2)c1C` the value was 4.17%; for `O=S1(=O)NC(c2ccccc2)CC(CC2CCCCC2)O1` (stereo not shown), -13.2%; for `CCOC(=O)C1=C(O)/C(=C/c2ccc(OCC(=O)O)c(OC)c2)SC1=Nc1ccc(OCC)cc1`, 9.86%. The result for `COc1cc(OC)cc(C(=O)OCC(=O)NC(C)CCc2ccccc2)c1` (stereo not shown) reads 28.4%; that for `CCCc1cc(N2CCOCC2)n2ncc(-c3ccccc3)c2n1`, 14.4%; that for `CC(C)c1ccc(CNC(=O)C(=O)NCC2CCCO2)cc1` (stereo not shown), 7.73%. Take `CCN(c1ccccc1)S(=O)(=O)c1ccc2[nH]c(=O)[nH]c2c1`: the “hERG current change (%, negative = inhibition) at 10uM” value is listed as -0.668%. For `COC(=O)[C@@]1(Cc2ccc(F)cc2)[C@H]2c3cc(C(=O)N(C)C)n(Cc4ccc(OC)c(OC)c4)c3C[C@H]2CN1C(=O)c1ccccc1` the value was -42.6%. The result for `CC(=O)Nc1ccc2c(c1)C(=O)c1ccccc1C2=O` reads 12.2%. Consider `COc1ccc(-c2nn(-c3ccccc3)cc2/C=N/O)cc1`, for which the “hERG current change (%, negative = inhibition) at 10uM” value was 5.13%. The result for `O=C(N/N=C/c1c(F)cccc1Cl)C(=O)N1CCCCCC1` reads 8.16%; that for `COc1ccc(C(=O)C2CCCN(C(=O)C3CCOCC3)C2)c(C)c1` (stereo not shown), 27%.

Regarding `COc1cccc(/C=N/NC(=O)CC(=O)NCCc2ccc(OC)c(OC)c2)c1`, the “hERG current change (%, negative = inhibition) at 10uM” value is recorded as -11.9%.

Consider `COC(=O)c1cc(NC(=O)CN2C(=O)C(=O)N(C3CCCC3)C2=O)cc(C(=O)OC)c1`, for which the “hERG current change (%, negative = inhibition) at 10uM” value is listed as -8.81%. The result for `Cc1ccc(O)c(CN2CCN(c3ccccc3)CC2)c1` reads -17.2%; that for `CC1CC(=O)C=C(O)C1C(=O)OC(C)(C)C` (stereo not shown), 11.4%. In the case of `Cc1sc(NC(=O)Cn2[nH]c(=O)c3ccccc3c2=O)nc1-c1ccccc1`, the “hERG current change (%, negative = inhibition) at 10uM” value came to 11.6%. The result for `C=CCOc1ccc(CNn2c(C)n[nH]c2=S)cc1OC` reads 21.7%. On to `CCn1c(Cc2cccs2)nnc1SCC(=O)Nc1ccc(OC)c(OC)c1`, for which the “hERG current change (%, negative = inhibition) at 10uM” value is 14.9%. For `Cc1ccc(-c2cc(C(=O)N/N=C/C=C/c3ccccc3)n[nH]2)o1` the value was -7.76%; for `CC(=O)N1c2ccc(S(=O)(=O)N3CCC(C(=O)NCc4ccccc4Cl)CC3)cc2CC1C` (stereo not shown), 8.4%; for `O=C(N/N=C/c1c[nH]c2ccccc12)c1ccncc1`, 9.13%.

On to `COc1ccc(C(CNC(=O)c2cccnc2SC)N2CCOCC2)cc1` (stereo not shown), for which the “hERG current change (%, negative = inhibition) at 10uM” value is 1.56%. For `Cc1ccn2cc(-c3ccc(Br)cc3)nc2c1`, the “hERG current change (%, negative = inhibition) at 10uM” value is recorded as 11.7%.

For `CCOC(=O)c1c2c3c(cccc3[nH]c1=O)C(=O)c1ccccc1-2`, the “hERG current change (%, negative = inhibition) at 10uM” value is reported as 17.6%. Regarding `CC(C)CC1=NC(C(F)(F)F)(C(F)(F)F)c2c(n(CC(C)C)c(=O)[nH]c2=O)N1`, the “hERG current change (%, negative = inhibition) at 10uM” value was 21.4%. The result for `CC(Sc1ncnc2sc(-c3ccccc3)cc12)C(=O)N1CCNC1=O` (stereo not shown) reads -11.4%; that for `Cn1c(=O)[nH]c(=O)c2c1nc(Br)n2C/C=N/Nc1ccccc1`, -16.2%; that for `CCCCCC(=O)Nc1ccc(Cc2ccncc2)cc1`, -28.6%. For `O=C(c1cccc([N+](=O)[O-])c1)n1nc(-c2ccccc2)nc1NCc1ccccc1` the value was 9.75%; for `Nc1nc(-c2cccc(Br)c2)cs1`, 5.31%; for `C=CCOc1c(CNc2ccc3[nH]c(=O)[nH]c3c2)cccc1OC`, 10.1%. The result for `COc1ccc(CCNC(=O)Cn2nnc(-c3cccc(OC)c3OC)n2)cc1OC` reads 6.69%; that for `CC(=O)O/N=C/c1c(C)c(C=O)n2ccccc12`, 10.5%. For the compound `CCOc1ccccc1/C=N/NC(=O)CNC(=O)COc1ccccc1`, the “hERG current change (%, negative = inhibition) at 10uM” value came to 10.9%. The result for `COC1=C(C)C(O)=C(C(=O)/C=C/c2ccccc2)C(=O)C1(C)C` reads -11.2%; that for `COc1ccc(/C=C(\C#N)C(=O)N2CCOCC2)cc1Br`, -4.94%; that for `COc1cc(/C=C/C(=O)O)ccc1OS(=O)(=O)c1ccc(C)cc1`, 5.39%.

Take `CN1CCN(CC(=O)Nc2ccc(Oc3ccccc3)cc2)CC1`: the “hERG current change (%, negative = inhibition) at 10uM” value is listed as -47.5%.

On to `CN(CC(=O)N1CCN(c2ccc(F)cc2)CC1)S(=O)(=O)c1ccc2c(c1)c(=O)n(C)c(=O)n2C`, for which the “hERG current change (%, negative = inhibition) at 10uM” value is listed as -0.425%. For `COc1cccc(OCCNC(=O)c2cc([N+](=O)[O-])cc([N+](=O)[O-])c2)c1` the value was -28.2%; for `N/C(=N\OC(=O)CCc1ccccc1)c1ccc(Br)cc1`, 10.2%; for `COc1cc(Br)cc2cc(C(=O)N3CCN(c4ccccn4)CC3)c(=O)oc12`, -27.8%. The result for `O=[N+]([O-])c1ccc(CCn2ccnc2)cc1` reads -5.64%. The result for `COc1ccc(C(=O)NCc2nnc(SCC(=O)N3CCc4ccccc43)o2)cc1OC` reads 13%; that for `CCN1CCN(CCOCCOc2ccccc2-c2ccccc2)CC1.O=C(O)C(=O)O`, -35.6%.

With `Cc1cc2c(cc1C)NC(c1ccccn1)C1=C(CC(C)(C)CC1=O)N2` (stereo not shown), the “hERG current change (%, negative = inhibition) at 10uM” value amounted to 7.01%.

Regarding `O=C(NCCCn1ccnc1)C(=O)NCC(c1ccco1)N1CCN(c2ccccc2)CC1` (stereo not shown), the “hERG current change (%, negative = inhibition) at 10uM” value was 1.01%. The result for `O=C(COC(=O)c1ccc([N+](=O)[O-])s1)NCc1ccc(F)cc1` reads 19.5%; that for `Cc1cc2cc(C=C(C#N)C#N)c(Cl)nc2cc1C`, -30.7%; that for `NC(Cc1c[nH]c2ccccc12)C(=O)NCc1ccccc1` (stereo not shown), 13.8%. The result for `O=S(=O)(c1cccs1)N1CCN(c2ccc(Cl)cc2)CC1` reads 21.5%; that for `Nc1ccc(Nc2ccccc2)c(Cl)c1`, -5.85%.

For the compound `COCCN(C(=O)C(F)(F)F)C(C(=O)NC1CCCCC1)c1ccco1` (stereo not shown), the “hERG current change (%, negative = inhibition) at 10uM” value was determined as 2.81%. The result for `CCC(=O)Nc1ccc(OCc2nc3ccccc3s2)cc1` reads 21.1%; that for `Cc1ccc(NC(=O)COC(=O)c2cc(=O)c3ccccc3o2)cc1F`, 12.9%. The result for `O=C(CSc1nnc(CNC(=O)c2ccccc2F)o1)NCc1ccccc1` reads -7.93%.
